The campaign covered roughly 350,000 compounds. About 260 (0.074%) were called active. The inconclusive results got no clear call from the source; some entries with a clear call stand among them for comparison. Calls follow the shape of the dose curve; as a rule, active = well fitted inhibition curve with a large enough effect; inconclusive = small, poorly fitted or top-dose-only effect; inactive = no such curve, though single readings can be large or run the other way. Potencies of inconclusive entries are doubtful fits and often do not repeat.
Biological target: Ferritin light chain (Equus caballus) (UniProt P02791)
Chain of UniProt P02791 (P02791 whole entry, looked up): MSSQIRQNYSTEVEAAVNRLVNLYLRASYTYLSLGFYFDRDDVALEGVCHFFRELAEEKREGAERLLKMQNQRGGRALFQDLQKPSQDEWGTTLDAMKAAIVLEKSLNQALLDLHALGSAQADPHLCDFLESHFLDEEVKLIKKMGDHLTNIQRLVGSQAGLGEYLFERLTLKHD
Experiment: qHTS Assay for Identification of Novel General Anesthetics; also: nearly all actives have a fitted effect of over 20% in size
Conditions: apoferritin/1-aminoanthracene competitive binding, fluorescence; activity change, negative = displacement: at 77.5 µM (top of the series)
Procedure, shortened: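 Probe: 1-aminoanthracene (50% saturated, PBS). Protein: horse-spleen apoferritin, 10 uM. Incubation: 10 min, room temperature. Detection: 380 nm excitation, 535 nm emission. Analysis: normalized response, four-parameter Hill.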
% is scaled to controls: 0 for no effect and ±100 for the full control effect; potency is read from the fitted curve at half-maximal effect; tags tell the direction and shape of the fitted curve.

Potency, inconclusive:
CCCCSCCCNC(=O)c1cn(CC)c2ccc(S(=O)(=O)N3CCOCC3)cc2c1=O 28.2 µM [inhibitor, partial curve], CCNS(=O)(=O)c1ccc(Br)c(OC)c1 50.1 µM [inhibitor, single point], O=C(CC(=O)N/N=C\c1ccc(F)cc1)NCCc1ccccc1 5.62 µM [inhibitor, partial curve], COc1ccc(C(CNC(=O)COc2cc(C)c(Cl)c(C)c2)N2CCCCC2)cc1 (centres undefined) 50.1 µM [inhibitor, single point], Cn1nc(C(F)(F)F)c2cc(NC(=O)OCC(C)(C)C)sc21 20 µM [inhibitor, partial curve], Cc1ccc(OCC(=O)NNc2c3ccccc3nc3ccccc23)cc1 28.2 µM [inhibitor, partial curve], Cc1ccc(C2OC(=O)c3ccccc32)cc1 (centres undefined) 50.1 µM [inhibitor, single point], CCOc1ccc(S(=O)(=O)Nc2ccc(S(=O)(=O)N3CCCCC3)cc2)cc1 35.5 µM [inhibitor, partial curve], O=C(CCCc1cccs1)Nc1nccs1 35.5 µM [inhibitor, partial curve], Cc1[nH]n(C(N)=S)c(=O)c1N=Nc1ccc2ccccc2c1 35.5 µM [inhibitor, partial curve], Cc1nc2ccccc2c2oc(C(=O)N3CCc4ccccc4C3)cc12 35.5 µM [inhibitor, partial curve], CSc1ccccc1OCc1cc(C(=O)N(C)C(C)c2nc(C)cs2)no1 (centres undefined) 31.6 µM [inhibitor, partial curve], COc1ccc(OC)c(/C=C/C(=O)N2CCCc3ccccc32)c1 31.6 µM [inhibitor, single point], CC1CCCN(c2ccc(C(=O)NCc3ccc4c(c3)OCO4)cc2[N+](=O)[O-])C1 (centres undefined) 15.8 µM [inhibitor, partial curve, poor fit], CC1CCN(CCCNC(=O)c2ccc3c(=O)n(Cc4ccc(Cl)cc4)c(=S)[nH]c3c2)CC1 44.7 µM [inhibitor, partial curve], O=C(CCc1ccccc1)Nc1ccc(F)c([N+](=O)[O-])c1 25.1 µM [inhibitor, single point], CN(c1ncnc(N)c1[N+](=O)[O-])C1CCCCC1 3.55 µM [inhibitor, full curve], COc1ccc2nc(NC(=O)c3ccc(-n4nc(C)cc4C)cc3)sc2c1 1.58 µM [inhibitor, full curve, poor fit], N/C(=N\OC(=O)Cc1cccc2ccccc12)c1ccccn1 31.6 µM [inhibitor, partial curve, poor fit], Cc1cc(N2CCN(C)CC2)nc2ccc(NC(=O)CCC(=O)N3CCN(c4ccc([N+](=O)[O-])cc4)CC3)cc12 28.2 µM [inhibitor, partial curve], CC1CCN(S(=O)(=O)c2ccc3c(c2)N(CC(=O)NCc2ccccc2Cl)C(=O)CO3)CC1 11.2 µM [inhibitor, single point], COc1ccc(OCCOC(=O)c2[nH]c(C)c(C(C)=O)c2C)cc1 39.8 µM [inhibitor, single point], CC1=NN(C(=O)Cc2ccccc2)C(O)(c2ccccc2)C1 (centres undefined) 35.5 µM [inhibitor, single point], CC1(C(=O)N2CCC(CC3CC(c4ccc(Cl)cc4)=NO3)(C(=O)NCC3CCCCC3)CC2)CC1 (centres undefined) 28.2 µM [inhibitor, partial curve], C1=C(CCNc2nnnn2-c2ccccc2)CCCC1 28.2 µM [inhibitor, single point], CC(C)(C)OC(=O)CC[C@@H](C(=O)N1CCN(C(=O)OC(C)(C)C)CC1)n1cc(C(Cc2ccc(O)cc2)NC(=O)OC(C)(C)C)nn1 (some centres undefined) 25.1 µM [inhibitor, partial curve], O=C(Oc1ccccc1O)c1cccc2ccccc12 35.5 µM [inhibitor, partial curve], Fc1ccccc1Nc1nc2ccccc2o1 50.1 µM [inhibitor, single point], Cc1[nH]n(-c2ccc(Cl)cc2)c(=O)c1C=Nc1ccc(S(=O)(=O)N2CCOCC2)cc1 31.6 µM [inhibitor, partial curve], CC1CC(C)CN(C(=O)c2ccc3c(c2NCCO)C(=O)c2ccccc2C3=O)C1 (centres undefined) 35.5 µM [inhibitor, partial curve], O=C(Nc1ccc([N+](=O)[O-])cn1)C1CC2CCC1C2 (centres undefined) 39.8 µM [inhibitor, partial curve]

Activity change, negative = displacement, inactive:
CCc1c2c(nc3ccc(OC(=O)N4CCC(N5CCCCC5)CC4)cc13)-c1cc3c(c(=O)n1C2)COC(=O)C3(O)CC (centres undefined) 335%, Cc1ccccc1-c1nnc(Cc2ccccc2)o1 -20.9%, O=C(O)CC1NC(=S)N(c2ccccc2)C1=O (centres undefined) -2.66%, CCOC(=O)/C=C/C(=O)Nc1nccs1 -12.4%, C=CCNC(=O)c1cc(Cl)ccc1Cl -12%, COc1ccc(NC(=O)C2CCCN(c3cc(C)nc4ncnn34)C2)cc1 (centres undefined) -5.97%, COCCn1c(C)cc(O)c(C(c2ccccc2)N2CCN(c3ccc(F)cc3)CC2)c1=O (centres undefined) 0.332%, Cc1ccc2c(c1)c1c(n2C)-c2[nH]ncc2CC1 -2.6%, O=c1c(S(=O)(=O)c2ccccc2)cn(Cc2ccc(F)cc2)c2cc(N3CCCC3)c(F)cc12 5.25%, CCO/C=C1/C(=O)N(c2ccc(OC)cc2)C(=O)c2ccccc21 -9.91%, CCOc1ccc(OCC)c(NS(=O)(=O)c2cccc3nsnc23)c1 1.58%, CN(C)CCCN(C(=O)COc1ccc(Cl)cc1)c1nc2c(F)cccc2s1 -8.61%, Cc1cc(-c2ccc(C)c(S(=O)(=O)NCCC(C)N3CCCCCC3)c2)on1 (centres undefined) -0.294%
